# From patent US7592316B2, “Peptides as NS3-serine protease inhibitors of hepatitis C virus” (Schering Corporation, priority 2000, dated 2009)
# Molecular target: HCV NS3/NS4A protease (strain 1a) (Hepatitis C virus genotype 1a, UniProt P27958)
# Assay: biochemical
# Settings: Table 5; HCV NS3/NS4A protease, spectrophotometric assay, 30° C., pH 6.5; read-out: Ki* Range
row,SMILES,Ki
1,CCCC(NC(=O)[C@@H]1[C@H]2[C@@H](CN1C(=O)[C@@H](NC(=O)OC(C)C)C(C)(C)C)C2(C)C)C(=O)C(N)=O (stereo partly shown),0.101 to 1 µM
2,CC(C)OC(=O)N[C@H](C(=O)N1C[C@H]2[C@@H](C1C(=O)NC(CC1CC1)C(=O)C(N)=O)C2(C)C)C1CCCCC1 (stereo partly shown),0.001 to 0.1 µM
3,CC(C)(C)OC(=O)N[C@H](C(=O)N1C[C@H]2[C@@H]([C@H]1C(=O)NC1(C(=O)C(N)=O)CC1)C2(C)C)C1CCCCC1,> 1 µM
4,CCCC(NC(=O)[C@@H]1[C@@H]2[C@H](CN1C(=O)[C@@H](NC(=O)NC(C)(C)C)C(C)(C)C)C2(C)C)C(=O)C(N)=O (stereo partly shown),0.101 to 1 µM
5,CCCC(NC(=O)[C@@H]1[C@@H]2[C@H](CN1C(=O)[C@@H](NC(=O)NC(C)C)C(C)(C)C)C2(C)C)C(=O)C(N)=O (stereo partly shown),0.101 to 1 µM
6,CCCC(NC(=O)[C@@H]1[C@@H]2[C@H](CN1C(=O)[C@@H](NC(=O)NCC)C(C)(C)C)C2(C)C)C(=O)C(N)=O (stereo partly shown),> 1 µM
7,CC(C)(C)OC(=O)N[C@H](C(=O)N1C[C@H]2[C@@H]([C@H]1C(=O)NC(CC1CC1)C(=O)C(=O)O)C2(C)C)C1CCCC1 (stereo partly shown),0.101 to 1 µM
8,C=CCC(NC(=O)[C@@H]1[C@@H]2[C@H](CN1C(=O)[C@@H](NC(=O)OC(C)(C)C)C1CCCCC1)C2(C)C)C(=O)C(=O)OC (stereo partly shown),> 1 µM
9,C=CCC(NC(=O)[C@@H]1[C@@H]2[C@H](CN1C(=O)[C@@H](NC(=O)OC(C)(C)C)C1CCCCC1)C2(C)C)C(=O)C(=O)O (stereo partly shown),0.101 to 1 µM
10,COC(=O)C(=O)C(CC(C)C)NC(=O)[C@@H]1[C@@H]2[C@H](CN1C(=O)[C@@H](NC(=O)OC(C)(C)C)C1CCCCC1)C2(C)C (stereo partly shown),> 1 µM
11,CC(C)CC(NC(=O)[C@@H]1[C@@H]2[C@H](CN1C(=O)[C@@H](NC(=O)OC(C)(C)C)C1CCCCC1)C2(C)C)C(=O)C(=O)O (stereo partly shown),> 1 µM
12,COC(=O)C(=O)C(CC(C)(C)C)NC(=O)[C@@H]1[C@@H]2[C@H](CN1C(=O)[C@@H](NC(=O)OC(C)(C)C)C(C)(C)C)C2(C)C (stereo partly shown),> 1 µM
13,CC(C)(C)OC(=O)N[C@H](C(=O)N1C[C@@H]2[C@H]([C@H]1C(=O)NC(CC1CC1)C(=O)C(=O)O)C2(C)C)C1Cc2ccccc2C1 (stereo partly shown),0.101 to 1 µM
14,COC(=O)C(=O)C(CC1CC1)NC(=O)[C@@H]1[C@H]2[C@@H](CN1C(=O)[C@@H](NC(=O)OC(C)(C)C)C1Cc3ccccc3C1)C2(C)C (stereo partly shown),> 1 µM
15,CC(C)CC(NC(=O)[C@@H]1[C@H]2[C@@H](CN1C(=O)[C@@H](NC(=O)OC(C)(C)C)C1Cc3ccccc3C1)C2(C)C)C(=O)C(=O)O (stereo partly shown),> 1 µM
16,COC(=O)C(=O)C(CC(C)C)NC(=O)[C@@H]1[C@H]2[C@@H](CN1C(=O)[C@@H](NC(=O)OC(C)(C)C)C1Cc3ccccc3C1)C2(C)C (stereo partly shown),> 1 µM

row,SMILES,Ki
1,CCCC(NC(=O)[C@@H]1CC(c2ccccc2)CN1C(=O)OC(C)(C)C)C(=O)C(=O)O (stereo partly shown),> 1 µM
2,CCCC(NC(=O)[C@@H]1C2CCC(C)(C)OC2CN1C(=O)[C@@H](NC(=O)OC(C)(C)C)C(C)(C)C)C(=O)C(=O)OC (stereo partly shown),> 1 µM
3,COC(=O)C(=O)C(CC1CC1)NC(=O)[C@@H]1[C@@H]2[C@H](CN1C(=O)[C@@H](NC(=O)OC(C)(C)C)C(C)C)C2(C)C (stereo partly shown),> 1 µM
4,CC(C)[C@H](NC(=O)OC(C)(C)C)C(=O)N1C[C@H]2[C@@H]([C@H]1C(=O)NC(CC1CC1)C(=O)C(=O)O)C2(C)C (stereo partly shown),0.101 to 1 µM
5,COC(=O)C(=O)C(CCC1CC1)NC(=O)[C@@H]1[C@@H]2[C@H](CN1C(=O)[C@@H](NC(=O)OC(C)(C)C)C1CCCCC1)C2(C)C (stereo partly shown),> 1 µM
6,CC(C)(C)OC(=O)N[C@H](C(=O)N1C[C@H]2[C@@H]([C@H]1C(=O)NC(CCC1CC1)C(=O)C(=O)O)C2(C)C)C1CCCCC1 (stereo partly shown),0.001 to 0.1 µM
7,COC(=O)C(=O)C1(NC(=O)[C@@H]2[C@@H]3[C@H](CN2C(=O)[C@@H](NC(=O)OC(C)(C)C)C2CCCCC2)C3(C)C)CC1,> 1 µM
8,CC(C)(C)OC(=O)N[C@H](C(=O)N1C[C@H]2[C@@H]([C@H]1C(=O)NC1(C(=O)C(=O)O)CC1)C2(C)C)C1CCCCC1,> 1 µM
9,CCCC(NC(=O)[C@@H]1[C@@H]2CCC(C)(C)OC2CN1C(=O)[C@@H](NC(=O)OC(C)(C)C)C(C)(C)C)C(=O)C(=O)O (stereo partly shown),> 1 µM
10,C=CCCCC(NC(=O)[C@@H]1[C@@H]2[C@H](CN1C(=O)[C@@H](NC(=O)OC(C)(C)C)C1CCCCC1)C2(C)C)C(=O)C(=O)OC (stereo partly shown),> 1 µM
11,C=CCCCC(NC(=O)[C@@H]1[C@@H]2[C@H](CN1C(=O)[C@@H](NC(=O)OC(C)(C)C)C1CCCCC1)C2(C)C)C(=O)C(=O)O (stereo partly shown),0.101 to 1 µM
12,COC(=O)C(=O)C1(NC(=O)C2[C@@H]3[C@H](CN2C(=O)[C@@H](NC(=O)OC(C)(C)C)C(C)C)C3(C)C)CC1 (stereo partly shown),> 1 µM
13,CC(C)[C@H](NC(=O)OC(C)(C)C)C(=O)N1C[C@H]2[C@@H](C1C(=O)NC1(C(=O)C(=O)O)CC1)C2(C)C (stereo partly shown),> 1 µM
14,COC(=O)C(=O)C(CC1CC1)NC(=O)[C@@H]1[C@@H]2[C@H](CN1C(=O)[C@@H](NC(=O)OC(C)C)C1Cc3ccccc3C1)C2(C)C (stereo partly shown),> 1 µM
15,CC(C)OC(=O)N[C@H](C(=O)N1C[C@H]2[C@@H]([C@H]1C(=O)NC(CC1CC1)C(=O)C(=O)O)C2(C)C)C1Cc2ccccc2C1 (stereo partly shown),0.101 to 1 µM
